Source: patent publication US11780826B2 (Amgen Inc., priority 2017, dated 2023)
At least one structure is not confirmed: it was looked up by name or label, or the drawing left a doubt.

Tested on: Bovine cardiac myofibrils
Assay: In vitro model of dose-dependent myofibril ATPase modulation (AC1.4, pyruvate kinase/lactate dehydrogenase-coupled ATPase assay at pCa25)
Assay type: biochemical
Settings: concentration at which ATPase activity was 1.4-fold higher than the bottom of the dose curve, mean of a minimum of two independent tests
Description: In vitro Model of Dose-Dependent Myofibril ATPase Modulation: Dose responses were measured using a calcium-buffered, pyruvate kinase and lactate dehydrogenase-coupled ATPase assay containing the following reagents (concentrations expressed are final assay concentrations): Potassium PIPES (12 mM), MgCl2 (2 mM), ATP (1 mM), DTT (1 mM), BSA (0.1 mg/mi), NADH (0.5 mM), PEP (1.5 mM), pyruvate kinase (4 U/ml), lactate dehydrogenase (8 U/ml), and antifoam (90 ppm). The pH was adjusted to 6.80 at 22° C. by addition of potassium hydroxide.
Bovine cardiac myofibrils were obtained by homogenizing the appropriate tissue in the presence of detergent. Such treatment removes membranes and majority of soluble cytoplasmic proteins but leaves intact cardiac sarcomeric acto-myosin apparatus. Concentrations of myofibrils were adjusted to achieve the necessary rate of ATP hydrolysis (typically 0.25-1.0 mg/ml).
Assays were performed by first preparing a dilution series of test chemical entity, each with an assay mixture containing potassium Pipes, MgCl2, BSA, DTT, pyruvate kinase, lactate dehydrogenase, myofibrils, antifoam, EGTA, CaCl2, and water. The assay was started by adding an equal volume of solution containing potassium Pipes, MgCl2, BSA, DTT, ATP, NADH, PEP, antifoam, and water. ATP hydrolysis was monitored by absorbance at 340 nm. The resulting dose response curve was fit by the 4 parameter equation y=Bottom+((Top−Bottom)/(1+((EC50/X)^Hill))). […] AC1.4 values reported in the table below are mean values based on a minimum of two independent tests.

Row | SMILES | AC1.4 [µM]
1 | C[C@H](NC(=O)[C@@H](C)N(C)C(=O)c1cccc(S(=O)(=O)N2CC(C#N)C2)c1)c1ccc(C(F)(F)F)cc1 [Example 167, 3-((3-cyano-1-azetidinyl)sulfonyl)-N-methyl-N-((1R)-1-methyl-2-oxo-2-(((1S)-1-(4-(trifluoromethyl)phenyl)ethyl)amino)ethyl)benzamide] | 0.2813
2 | CC1CCN(S(=O)(=O)N2CC(C#N)C2)CC1C(=O)N1CCC[C@@H]1C(=O)NCc1ccc(C(F)(F)F)cc1 (stereo partly drawn) [Example 170, 1-((-1-((3-cyano-1-azetidinyl)sulfonyl)-4-methyl-3-piperidinyl)carbonyl)-N-(4-(trifluoromethyl)benzyl)-D-prolinamide] | 0.2928
3 | O=C(N[C@@H](c1cc(F)c(Cl)cc1F)C1COC1)[C@H]1C[C@H]2C[C@H]2N1C(=O)c1ccnc(C(F)F)c1 [Example 267, (1R,3R,5R)-N-((R)-(4-chloro-2,5-difluorophenyl)(3-oxetanyl)methyl)-2-((2-(difluoromethyl)-4-pyridinyl)carbonyl)-2-azabicyclo[3.1.0]hexane-3-carboxamide] | 0.6696
4 | CS(=O)(=O)c1cccc(C(=O)N2CCC[C@@H]2C(=O)N[C@@H](c2ccc(Cl)cc2F)C2COC2)c1 [Example 304, N-((R)-(4-chloro-2-fluorophenyl)(3-oxetanyl)methyl)-1-(3-(methylsulfonyl)benzoyl)-D-prolinamide] | 0.7439
5 | N#CC1CN(S(=O)(=O)N2CCC[C@H](C(=O)N3CCC[C@@H]3C(=O)NC3COc4cc(F)cc(F)c43)C2)C1 (stereo partly drawn) [Example 357, (2R)-1-((S)-1-((3-cyanoazetidin-1-yl)sulfonyl)piperidine-3-carbonyl)-N-(4,6-difluoro-2,3-dihydrobenzofuran-3-yl)pyrrolidine-2-carboxamide] | 1.0695
6 | CC1(O)CN(S(=O)(=O)c2cccc(C(=O)N3CCC[C@@H]3C(=O)NCc3ccc(C(F)(F)F)cc3)c2)C1 [Example 385, 1-(3-((3-hydroxy-3-methyl-1-azetidinyl)sulfonyl)benzoyl)-N-(4-(trifluoromethyl)benzyl)-D-prolinamide] | 1.3155
7 | C[C@@H](NC(=O)[C@H]1C[C@H](F)CN1C(=O)c1cccc(S(=O)(=O)N2CC(C#N)C2)c1)c1cccc(C(F)(F)F)c1 [Example 411, (4S)-1-((3-((3-cyano-1-azetidinyl)sulfonyl)phenyl)carbonyl)-4-fluoro-N-((1R)-1-(3-(trifluoromethyl)phenyl)ethyl)-D-prolinamide] | 1.493
8 | C[C@H](C(=O)NCc1ccc(C(F)(F)F)cc1)N(C)C(=O)[C@H]1CCCN(S(=O)(=O)N2CC(C#N)C2)C1 [Example 432, (3S)-1-((3-cyano-1-azetidinyl)sulfonyl)-N-methyl-N-((1R)-1-methyl-2-oxo-2-((4-(trifluoromethyl)benzyl)amino)ethyl)-3-piperidinecarboxamide] | 1.6518
9 | Cc1cccc(CNC(=O)[C@H]2CCCN2C(=O)[C@H]2CCCN(S(=O)(=O)N3CC(C#N)C3)C2)c1C [Example 433, 1-(((3S)-1-((3-cyano-1-azetidinyl)sulfonyl)-3-piperidinyl)carbonyl)-N-(2,3-dimethylbenzyl)-D-prolinamide] | 1.656
10 | Cc1cccc(C)c1CNC(=O)[C@H]1CCCN1C(=O)[C@H]1CCCN(S(=O)(=O)N2CC(C#N)C2)C1 [Example 709, 1-(((3S)-1-((3-cyano-1-azetidinyl)sulfonyl)-3-piperidinyl)carbonyl)-N-(2,6-dimethylbenzyl)-D-prolinamide] | 5.865
11 | CN1Cc2ccccc2C(NC(=O)[C@H]2CCCN2C(=O)[C@H]2CCCN(S(=O)(=O)N3CC(C#N)C3)C2)C1 (stereo partly drawn) [Example 711, (2R)-1-((S)-1-((3-cyanoazetidin-1-yl)sulfonyl)piperidine-3-carbonyl)-N-(2-methyl-1,2,3,4-tetrahydroisoquinolin-4-yl)pyrrolidine-2-carboxamide] | 5.9075
12 | CS(=O)(=O)c1ccc(CO)c(C(=O)N2[C@@H](C(=O)N[C@@H](c3cc(F)c(C(F)(F)F)cc3F)C3CC3)C[C@H]3C[C@H]32)c1 [Example 814, (1R,3R,5R)-N-((R)-cyclopropyl(2,5-difluoro-4-(trifluoromethyl)phenyl)methyl)-2-(2-(hydroxymethyl)-5-(methylsulfonyl)benzoyl)-2-azabicyclo[3.1.0]hexane-3-carboxamide] | 0.4802
13 | O=C1CC(C(NC(=O)[C@H]2C[C@H]3C[C@H]3N2C(=O)c2ccnc(C(F)(F)F)c2)c2cc(F)c(C(F)(F)F)cc2F)CN1 (stereo partly drawn) [Example 832, (1R,3R,5R)-N-((S)-(2,5-difluoro-4-(trifluoromethyl)phenyl)(5-oxopyrrolidin-3-yl)methyl)-2-(2-(trifluoromethyl)isonicotinoyl)-2-azabicyclo[3.1.0]hexane-3-carboxamide] | 0.657
14 | CS(=O)(=O)c1cccc(C(=O)N2[C@@H](C(=O)N[C@@H](c3cc(F)c(OC(F)(F)F)cc3F)C3CC3)C[C@H]3C[C@H]32)c1 [Example 833, (1R,3R,5R)-N-((R)-cyclopropyl(2,5-difluoro-4-(trifluoromethoxy)phenyl)methyl)-2-(3-(methylsulfonyl)benzoyl)-2-azabicyclo[3.1.0]hexane-3-carboxamide] | 0.7424
